In PubChem BioAssay AID360 (National Center for Advancing Translational Sciences (NCATS), 2006):
In all, about 48,000 compounds went through this assay and about 550 (1.1%) were called active. Inconclusive results (about 4%) are left out. Rule as the data show it: active = potency below about 15 µM; inconclusive = mostly about 16 µM to 33 µM; inactive = weaker than that. The list shows a part of the results.

target: Lysosomal acid glucosylceramidase (Homo sapiens) (UniProt P04062); experiment: Glucocerebrosidase; settings: purified enzyme, resorufin glucoside fluorescence (screen aimed at inhibitors), 20 min; series mostly up to 77 µM;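 also: the screen sought inhibitors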
How it was run: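 Wild-type enzyme at 0.2 nM final in 50mM citric acid/KH2PO4, 10mM sodium taurocholate, 0.01% tween-20, pH 5.9, with resorufin beta-D-glucopyranoside at 30 uM final. Compounds titrated, 20 min at RT, red fluorescence read; AC50 from titration.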
Potency is read from the fitted curve at half-maximal effect.

UniProt P04062, sequence (P04062 whole entry, looked up): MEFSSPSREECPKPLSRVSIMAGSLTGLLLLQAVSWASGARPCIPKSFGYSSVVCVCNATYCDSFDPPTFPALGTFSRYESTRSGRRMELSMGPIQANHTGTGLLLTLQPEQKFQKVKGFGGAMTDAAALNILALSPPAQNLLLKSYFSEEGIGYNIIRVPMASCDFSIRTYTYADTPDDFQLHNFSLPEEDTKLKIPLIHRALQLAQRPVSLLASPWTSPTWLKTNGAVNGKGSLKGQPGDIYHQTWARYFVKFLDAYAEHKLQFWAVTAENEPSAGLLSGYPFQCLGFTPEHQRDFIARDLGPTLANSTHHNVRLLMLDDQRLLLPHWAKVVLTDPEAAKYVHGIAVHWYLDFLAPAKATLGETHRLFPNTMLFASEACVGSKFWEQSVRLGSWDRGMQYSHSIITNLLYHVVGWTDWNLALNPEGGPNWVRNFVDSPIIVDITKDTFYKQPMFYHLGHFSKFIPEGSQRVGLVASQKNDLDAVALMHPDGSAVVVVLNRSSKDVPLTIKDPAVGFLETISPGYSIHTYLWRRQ

Potency, inactive:
CCOc1ccc(C)cc1S(=O)(=O)NC1CCCCC1 > 76.9 µM, Cn1c(/N=C/c2cc(Cl)ccc2O)nc2ccccc21 > 76.9 µM, Cc1c(C(=O)Nc2ccc(F)cc2)oc2ccc(S(=O)(=O)N3CCC4(CC3)OCCO4)cc12 > 76.9 µM, Cc1ccc(-n2c(SCC(=O)OC(C)C)nnc2-c2cnccn2)cc1 > 76.9 µM, C=CCn1c(SCCC(=O)O)nc2c1c(=O)n(C)c(=O)n2C > 76.9 µM, O=C(O)CCc1ccc(-c2cccs2)n1Cc1ccco1 > 76.9 µM, CC(=O)C1=C(C)NC(=O)NC1c1ccc(OC2CCCC2)cc1 (centres undefined) > 76.9 µM, O=C(Cc1c(F)cccc1Cl)Nc1cccnc1 > 76.9 µM, Cc1ccc(C)n1-c1ccc(-c2nnco2)cc1 > 76.9 µM, CCCn1c(C)cc(=O)c2cc(NC(=O)c3ccccn3)ccc21, COc1ccccc1N1CCN(S(=O)(=O)c2ccc3c4c(cccc24)C(=O)N3)CC1 > 76.9 µM, CC1=C(C(=O)Nc2ccccc2)C(c2ccc(C)o2)n2ncnc2N1 (centres undefined) > 76.9 µM, CC(C)(C)NC(=O)C(c1ccncc1)N(C(=O)CNC(=O)c1ccco1)c1ccc2c(c1)OCO2 (centres undefined) > 76.9 µM, Cc1ccccc1S(=O)(=O)Cc1ccc(C(=O)NCCCN2CCN(C)CC2)o1 > 76.9 µM, CCc1nnc(NC(=O)CCC(=O)N2CCN(Cc3cc(F)ccc3OC)CC2)s1 > 76.9 µM, CCc1c(C)nc(N)n2c(SCC(=O)N3CCCc4ccccc43)nnc12 > 76.9 µM, CC(C)c1ccc(-c2nnn(Cc3nc4ccccc4s3)n2)cc1 > 76.9 µM, CCOC(=O)C1(C(F)(F)F)N=C(N(C)C)OC(N(C)C)=N1 > 76.9 µM, O=c1[nH]c(CSc2ncc(-c3ccc(F)cc3)n2Cc2ccco2)nc2ccccc12 > 76.9 µM, CC(=O)Nc1cc(NC(C)=O)cc(C(=O)NC(C)(C)C)c1 > 76.9 µM, COc1ccc(OCCC(=O)N2CCCCC2)cc1 > 76.9 µM, CCOc1ccc(-c2nnc(-c3ccco3)o2)cc1OCC > 76.9 µM, Cn1c(=O)c2c(ncn2CC(N)=O)n(C)c1=O > 76.9 µM, COc1ccc(C2=NOC(C(=O)NCC(C)C)C2)cc1 (centres undefined) > 76.9 µM, CN(C(=O)c1cccc(C#N)c1)c1nnc(-c2cnccn2)s1 > 76.9 µM, CSc1nc(C)c(Oc2ccccc2)c(=O)n1C > 76.9 µM, O=C(NC12CC3CC(CC(C3)C1)C2)N1CC2Cc3cccc(=O)n3C(C2)C1 (centres undefined) > 76.9 µM, COC(=O)c1ccc(CSc2nc3ccccc3c(=O)n2-c2cccc(OC)c2)o1 > 76.9 µM, CCOC(=O)NC(=O)CSc1ccccn1 > 76.9 µM, O=C(c1cc2ccccc2o1)N1CCCCCC1 > 76.9 µM, COc1cccc(N2CCN(c3c4c(nc5ncnn35)CCC4)CC2)c1 > 76.9 µM, Cc1ccc(C)c(Cn2nnc3c(=O)[nH]c(C4CCCN(C(=O)C5CCC5)C4)nc32)c1 (centres undefined) > 76.9 µM, COc1ccc(C)cc1-n1nnnc1SCC(=O)c1cc(C)n(Cc2ccco2)c1C > 76.9 µM, COCCn1c(SCC(=O)NCc2ccco2)nc2cccnc21 > 76.9 µM, CC(=O)C(C)Oc1ccc2c3c(c(=O)oc2c1)CCCCC3 (centres undefined) > 76.9 µM, COc1cccc(Oc2nnnn2-c2ccccc2)c1 > 76.9 µM, O=C1C(c2ccc(F)cc2)N(Cc2ccc3c(c2)OCO3)C(=O)CN1C1CCCC1 (centres undefined) > 76.9 µM, COc1ccccc1-n1c(C)nnc1SCC(=O)Nc1cc(C)cc(C)c1 > 76.9 µM, Cc1ccc(C(=O)NC(C)(COc2nonc2C)COc2nonc2C)cc1 > 76.9 µM, Cn1cc(Cl)c(C(=O)N2CCN(c3ncccn3)CC2)n1 > 76.9 µM, Cc1[nH]c(=O)[nH]c(=O)c1S(=O)(=O)N1CCN(c2cccc(Cl)c2)CC1, O=C(CS(=O)(=O)c1cn(Cc2ccccc2Cl)c2ccccc12)N1CCOCC1 > 76.9 µM, Cc1ccc(NS(=O)(=O)c2cc(C(=O)N3CCN(C)CC3)ccc2C)cc1 > 76.9 µM, O=C(CCS(=O)(=O)c1ccc(Cl)cc1)N1CCN(S(=O)(=O)c2cccs2)CC1 > 76.9 µM, COc1ccc(N2C(=O)CC(n3c(CCCCO)nc4ccccc43)C2=O)cc1 (centres undefined) > 76.9 µM, CCCCCC1CC(=O)N(Cc2ccc(Cl)cc2)C(=O)N1 (centres undefined) > 76.9 µM, CCOC(=O)N1CCC(NC(=O)c2cc(S(=O)(=O)N3CCOCC3)ccc2F)CC1 > 76.9 µM, COC(=O)c1[nH]c(C)c(/C(O)=C2\C(=O)C(=O)N(CCCN3CCOCC3)C2c2ccccn2)c1C (centres undefined) > 76.9 µM, O=c1[nH]c(=O)n(Cc2ccccc2)c2nc(-c3ccco3)cc(C(F)(F)F)c12 > 76.9 µM, CSc1ccc2nnc(-c3cccc(F)c3)n2n1 > 76.9 µM, CC(C)C(=O)Nc1nnc(SCC(=O)NC2CC2)s1 > 76.9 µM, Cc1ccc(OCc2nnc(SCC(=O)Nc3ccc4c(c3)OCO4)n2C)cc1 > 76.9 µM, CC(C)OCCCNc1nc2c([nH]1)c(=O)n(C)c(=O)n2C > 76.9 µM, CC(C)(C)NC(=O)Cn1ccc(=N)c2ccccc21 > 76.9 µM, COc1ccc(Cc2nnc(SCC(=O)N3CCc4ccccc4C3)o2)cc1 > 76.9 µM, CC1=CC(C)(C)N2C(=O)C3(N=C(N)NC(Nc4ccccc4)=N3)c3cc(C)cc1c32 (centres undefined) > 76.9 µM, c1c2c(cc3sc(N4CCCCC4)nc13)OCO2 > 76.9 µM, Cc1ccc(Cn2c(SCc3cccnc3)nc3c2c(=O)n(C)c(=O)n3C)cc1 > 76.9 µM, COc1nc(OC)nc(N2CCC(C(=O)NC3CCCCCC3)CC2)n1 > 76.9 µM, COc1ccc(OC)c(C(=O)CSc2nnc(-c3cccnc3)n2C)c1 > 76.9 µM, Cc1cc2c(c(=O)n1CCN(C)C)C(c1ccc(Br)cc1)C(C#N)=C(N)O2 (centres undefined), O=C(c1ccc(Cn2c(=O)[nH]c3ccccc3c2=O)cc1)N1CCN(c2ccccc2)CC1 > 76.9 µM, CCOC(=O)N1CCN(C(=O)Cn2c(C)cc3ccccc3c2=O)CC1 > 76.9 µM, CCc1c(O)nc(N2CCN(Cc3ccccc3)CC2)[nH]c1=O > 76.9 µM, C=CCOc1ccc(/C(O)=C2\C(=O)C(=O)N(CCCOC)C2c2ccncc2)cc1 (centres undefined) > 76.9 µM, CC1(C)Oc2ccc(C(=O)NC3CCCC3)cc2N(CC(=O)NC2CCCCC2)C1=O > 76.9 µM, CC(=O)NCc1cccc(CNC(C)=O)n1 > 76.9 µM, COC(=O)c1[nH]c2ccccc2c1NC(=O)Oc1ccccc1 > 76.9 µM, O=C(c1ccc2ccccc2c1)N1CCN(c2ccc(O)cc2)CC1 > 76.9 µM, Cc1cccc2cc(CN(CC3CCCO3)C(=O)c3ccncc3)c(=O)[nH]c12 (centres undefined) > 76.9 µM, COc1cccc(CN2CCCC(C(=O)N3CCCCC3)C2)c1OC (centres undefined) > 76.9 µM, Cc1cc(O)c(NC(=O)c2ccco2)cc1C > 76.9 µM, CCOc1ccc(C(=O)NCCN(C)C)cc1 > 76.9 µM, O=C(CSc1nnc2ncccn12)N1CCCCCC1 > 76.9 µM, CN(C)S(=O)(=O)c1cccc(COC(=O)C2=COCCO2)c1 > 76.9 µM, COCCN1C(=O)c2ccccc2C(C(=O)N2CCN(c3ccccn3)CC2)C1c1ccc(F)cc1 (centres undefined) > 76.9 µM, Cc1nc(NC2=NCN(CC3CCCO3)CN2)nc2ccccc12 (centres undefined) > 76.9 µM, COc1ccccc1N1CC(O)=C(c2nc3ccccc3c(=O)[nH]2)C1=N, Cc1cccc(NC(=O)CSc2nnc(-c3ccccc3)n2N)c1C > 76.9 µM, CCN1CCN(c2c(Cl)cccc2NC(=O)c2ccco2)CC1 > 76.9 µM, COc1ccc(-c2noc(C3CCCN(S(=O)(=O)c4ccc(C)c(Cl)c4)C3)n2)cc1OC (centres undefined) > 76.9 µM, COc1ccccc1N1CCN(Cc2nnnn2CCc2ccccc2)CC1 > 76.9 µM, O=C1c2oc3ccc(Br)cc3c(=O)c2C(c2cccnc2)N1Cc1ccco1 (centres undefined) > 76.9 µM, COc1cc(NC(=O)c2ccco2)c(OC)cc1NC(=O)Nc1ccc(Cl)cc1 > 76.9 µM, O=C(CSc1nc2c(cnn2-c2ccc(F)cc2)c(=O)[nH]1)N1CCOCC1 > 76.9 µM, C=CCOc1ccc(/C(O)=C2\C(=O)C(=O)N(CCOC)C2c2cccnc2)cc1 (centres undefined) > 76.9 µM, Nc1nc(-c2cccnc2)nn1C(=O)COc1ccccc1 > 76.9 µM, O=C(CSc1nnc(-c2ccc(Br)cc2)o1)N1CCN(C(=O)c2ccco2)CC1 > 76.9 µM

Potency, active:
Cn1c(=O)n(CCc2ccccc2)c(=O)c2c1nc1n2CCCN1CCc1ccccc1 8.99 µM
